According to patent CN116897165A (dated 2023):

T1: 重组人VEGF-A 165 (human, UniProt P15692-4 27-191)
T1 construct: Coated on ELISA plates; also used in solution in the VEGFR2 reporter assay; also called recombinant human VEGF-A165
T1 sequence (looked up): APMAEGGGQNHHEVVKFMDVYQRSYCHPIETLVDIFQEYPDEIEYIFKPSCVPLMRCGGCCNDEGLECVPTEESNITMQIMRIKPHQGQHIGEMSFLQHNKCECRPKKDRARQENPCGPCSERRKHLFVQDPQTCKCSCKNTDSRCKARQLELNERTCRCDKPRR


Biological target: T1, 重组人VEGF-A 165
Test: ELISA, plate coated with recombinant human VEGF-A165, anti-human IgG1-Fc-HRP, OD450

| binding result | Binder |
| --- | --- |
| binds | B781405 (bispecific antibody, human IgG1, kappa, VEGFR-1-D2-VEGFR-2-D3 joined directly to the N-terminus of the tocilizumab light chain) heavy: QVQLQESGPGLVRPSQTLSLTCTVSGYSITSDHAWSWVRQPPGRGLEWIGYISYSGITTYNPSLKSRVTMLRDTSKNQFSLRLSSVTAADTAVYYCARSLARTTAMDYWGQGSLVTVSS[letters of human IgG1 constant region not shown] light: SDTGRPFVEMYSEIPEIIHMTEGRELVIPCRVTSPNITVTLKKFPLDTLIPDGKRIIWDSRKGFIISNATYKEIGLLTCEATVNGHLYKTNYLTHRQTNTIIDVVLSPSHGIELSVGEKLVLNCTARTELNVGIDFNWEYPSSKHQHKKLVNRDLKTQSGSEMKKFLSTLTIDGVTRSDQGLYTCAASSGLMTKKNSTFVRVHEKDIQMTQSPSSLSASVGDRVTITCRASQDISSYLNWYQQKPGKAPKLLIYYTSRLHSGVPSRFSGSGSGTDFTFTISSLQPEDIATYYCQQGNTLPYTFGQGTKVEIKRTVAAPSVFIFPPSDEQLKSGTASVVCLLNNFYPREAKVQWKVDNALQSGNSQESVTEQDSKDSTYSLSSTLTLSKADYEKHKVYACEVTHQGLSSPVTKSFNRGEC |
| binds | B781406 (bispecific antibody, human IgG1, kappa, VEGFR-1-D2-VEGFR-2-D3 joined by a flexible linker to the N-terminus of the tocilizumab light chain) heavy: QVQLQESGPGLVRPSQTLSLTCTVSGYSITSDHAWSWVRQPPGRGLEWIGYISYSGITTYNPSLKSRVTMLRDTSKNQFSLRLSSVTAADTAVYYCARSLARTTAMDYWGQGSLVTVSS[letters of human IgG1 constant region not shown] light: SDTGRPFVEMYSEIPEIIHMTEGRELVIPCRVTSPNITVTLKKFPLDTLIPDGKRIIWDSRKGFIISNATYKEIGLLTCEATVNGHLYKTNYLTHRQTNTIIDVVLSPSHGIELSVGEKLVLNCTARTELNVGIDFNWEYPSSKHQHKKLVNRDLKTQSGSEMKKFLSTLTIDGVTRSDQGLYTCAASSGLMTKKNSTFVRVHEKGGSGGGSGGGGSGGGGGSGGGGDIQMTQSPSSLSASVGDRVTITCRASQDISSYLNWYQQKPGKAPKLLIYYTSRLHSGVPSRFSGSGSGTDFTFTISSLQPEDIATYYCQQGNTLPYTFGQGTKVEIKRTVAAPSVFIFPPSDEQLKSGTASVVCLLNNFYPREAKVQWKVDNALQSGNSQESVTEQDSKDSTYSLSSTLTLSKADYEKHKVYACEVTHQGLSSPVTKSFNRGEC |
| binds | B781401 (bispecific antibody, human IgG1, kappa, VEGFR-1-D2-VEGFR-2-D3 joined directly to the N-terminus of the tocilizumab heavy chain) heavy: SDTGRPFVEMYSEIPEIIHMTEGRELVIPCRVTSPNITVTLKKFPLDTLIPDGKRIIWDSRKGFIISNATYKEIGLLTCEATVNGHLYKTNYLTHRQTNTIIDVVLSPSHGIELSVGEKLVLNCTARTELNVGIDFNWEYPSSKHQHKKLVNRDLKTQSGSEMKKFLSTLTIDGVTRSDQGLYTCAASSGLMTKKNSTFVRVHEKQVQLQESGPGLVRPSQTLSLTCTVSGYSITSDHAWSWVRQPPGRGLEWIGYISYSGITTYNPSLKSRVTMLRDTSKNQFSLRLSSVTAADTAVYYCARSLARTTAMDYWGQGSLVTVSS[letters of human IgG1 constant region not shown] light: DIQMTQSPSSLSASVGDRVTITCRASQDISSYLNWYQQKPGKAPKLLIYYTSRLHSGVPSRFSGSGSGTDFTFTISSLQPEDIATYYCQQGNTLPYTFGQGTKVEIKRTVAAPSVFIFPPSDEQLKSGTASVVCLLNNFYPREAKVQWKVDNALQSGNSQESVTEQDSKDSTYSLSSTLTLSKADYEKHKVYACEVTHQGLSSPVTKSFNRGEC |
